In general, % Inhibition refers to the drop in the measured response relative to a control, in per cent.

Here are results for 103 molecules from ChEMBL document CHEMBL4888484, “Replenishing the malaria drug discovery pipeline: Screening and hit evaluation of the MMV Hit Generation Library 1 (HGL1) against asexual blood stage Plasmodium falciparum ,using a nano luciferase reporter read-out” (2022).

Out of some 4,800 compounds screened, about 420 (8.8%) showed an effect of 50% or more. Some of the results follow.

The test system of the assay is Plasmodium falciparum. Put plainly: Confirmatory screen in NF54 nanoGlo assay, in single point, at 2uM, 72h. It is filed as functional, Erythrocyte. Conditions: timepoint 72 hour.
`Cc1nscc1C(=O)Nc1cccc(OCCN2CCCC2)c1`: the “% Inhibition” value was -8%.
Consider `COc1cc(OC)c(NC(=O)c2cnn3c4c(cnc23)CCCCCC4)cc1Cl`, for which the “% Inhibition” value came out at 3%.
Turning to `COc1cccc(-c2cc3c(N4CCC5(CC4)OCCO5)nccn3n2)c1`, the “% Inhibition” value was -3%.
For `O=C(NCc1ccc(S(=O)(=O)N2CCCC2)cc1)c1cc[nH]n1`, the “% Inhibition” value is given as -1%.
`COc1ccc(N[C@@H](C)C(=O)NC(=O)NC2CC2)c(OC)c1`: the “% Inhibition” value is -3%.
Consider `COc1cc(OC)cc(C(=O)Nc2cnc(N3CCCCC3)c(C)c2)c1`, for which the “% Inhibition” value is reported as 0%.
Consider `CCC(C)C(NC(=O)c1ccccc1NC(=O)c1ccco1)C(=O)N1CCCCCC1` (stereo not drawn), for which the “% Inhibition” value was -9%.
Regarding `Cc1c(C)n(C[C@@H](O)CNC2CCCC2)c2c(Cl)cccc12`, the “% Inhibition” value is -1%.
Under `CCCC1CCC(OC(=O)c2ccc(C(=O)OC3CCC(CCC)CC3)nc2)CC1` (stereo not drawn) stands 1%.
Take `CCCCN(C(=O)c1ccccc1)C(=O)c1ccccc1`: the “% Inhibition” value is -1%.
In the case of `Cc1ccc(COc2cccc(CNC3CC3)c2)cc1`, the “% Inhibition” value is listed as -7%.
Under `O=C(O)C1CC1C(=O)N1CCN(c2ccc(Cl)c(Cl)c2)CC1` (stereo not drawn) stands -3%; under `Cc1cc(C)c(S(=O)(=O)N2CCC(C)(C(=O)NCc3ccc4c(c3)OCO4)CC2)cc1C`, 3%; under `OC[C@H]1CCc2nnc(C(F)F)n2C1`, -6%.
For the molecule `N#Cc1c(N2CCCCC2)ncc2c(=O)c3ccccc3[nH]c12`, the “% Inhibition” value was -4%.
For the molecule `C[C@H]1CCCCN1CCNC(=O)c1cc2c(s1)N(C)CCCC2`, the “% Inhibition” value is -11%.
Under `CC1(CN2CCOCC2)CCN(CC(=O)N2CCc3sccc3C2)CC1` stands -1%; under `CC(C)NC(=O)CN1CCC2(CC1)NC(c1ccc(OC(F)(F)F)cc1)=NO2`, -1%.
On to `O=C(Nc1ccc2c(c1)OCO2)[C@@H](c1cccc(F)c1)N(Cc1ccc(F)cc1)C(=O)Cn1nnc2ccccc21`, for which the “% Inhibition” value is 5%.
With `O=C(CN1C(=O)C[C@H](Cc2ccc(F)cc2)C1=O)N1CCNC1=O`, the “% Inhibition” value is on record as -1%.
`CC[C@H](N)C(=O)N(CC1CC1C)C(C)C` (stereo partly drawn): the “% Inhibition” value turned out to be 4%.
Then `CCN(CC)c1ccc(C(=O)OCC(=O)NC(C)(C)C)cc1`, with -5%.
As for `COc1ccc(C2(NCc3cc(O)cc(Cl)c3)CCOCC2)cc1`, the “% Inhibition” value amounted to 24%.
Consider `O=C1Nc2ccc(Br)cc2C1=O`, for which the “% Inhibition” value stood at 2%.
`CC(C)n1[nH]c(=O)c2c1NC(=O)C[C@@H]2c1cccc2nccnc12`: the “% Inhibition” value was determined as 0%.
For the molecule `N#CCC(=O)NC1CCC(CC2CCC(NC(=O)CC#N)CC2)CC1` (stereo not drawn), the “% Inhibition” value is recorded as -4%.
With `Clc1cccc(CNc2cc(-c3ccco3)n[nH]2)c1`, the “% Inhibition” value was -7%.
Then `Oc1c(Br)cc(Br)cc1/C=C/c1ccc(CN2CCOCC2)cc1`, with -4%; and `COc1ccc2nc(C)c(C(=O)N3CC(OCC(F)F)C3)n2n1`, with -5%.
As to `Oc1cccc(CN[C@H]2CCCc3occc32)c1Cl`, the “% Inhibition” value is 71%.
As for `O=C(c1cn[nH]c1-c1ccccc1)N1CCCCC1`, the “% Inhibition” value is listed as -8%.
Then `CC(C)Cn1c(C(F)(F)F)cnc1N`, with 3%; and `CCn1nc(C)c(CNc2nnc(C3CCCCC3)o2)c1C`, with -12%; and `Cc1ccc(CN2CCN(CC(=O)NC3CCCCC3C)C2=O)cc1` (stereo not drawn), with -10%.
With `COc1ccccc1N1CCN(C(=O)c2nnn(-c3ccccc3Cl)c2-c2cccnc2)CC1`, the “% Inhibition” value was -2%.
Under `O=C(O[C@@H](c1ccccc1)N1C(=O)C(C(F)(F)F)(C(F)(F)F)c2ccccc21)C(C(F)(F)F)C(F)(F)F` stands 5%.
`O=C(COC[C@H]1CCCO1)Nc1ccc2[nH]c(=O)sc2c1`: the “% Inhibition” value is given as -2%.
`CCC[C@H](C)CS(=O)(=O)NCc1ccnc(OC(C)C)c1`: the “% Inhibition” value is on record as -11%.
With `C[C@H](NC(=O)c1nnn(C)c1C(F)(F)F)c1cscn1`, the “% Inhibition” value was found to be 7%.
On to `Cc1c(NC(=O)c2n[nH]cc2Cl)c(=O)n(-c2ccccc2)n1C`, for which the “% Inhibition” value was -13%.
Turning to `COc1cc(C)cc(C)c1S(=O)(=O)N(C)Cc1nnc[nH]1`, the “% Inhibition” value is reported as 4%.
As to `CCOc1ccc(NC(=O)c2cnc(N(Cc3ccccc3)C(C)C)nc2N)cc1`, the “% Inhibition” value was -15%.
For `COC(OC)c1ccnc2c(C#N)cnn12`, the “% Inhibition” value is -3%.
In the case of `CC1CC(NC(=O)NC2CS(=O)(=O)c3ccccc32)C(=O)N1c1ccccc1` (stereo not drawn), the “% Inhibition” value is -1%.
Then `CCO[C@H]1OCCn2c1c(Br)c(=O)n(C)c2=O`, with 2%.
For `O=C(c1cccc(C(=O)N2CCN(C(c3ccccc3)c3ccccc3)CC2)c1)N1CCN(C(c2ccccc2)c2ccccc2)CC1`, the “% Inhibition” value worked out at 63%.
For `Cc1ccc(N2CCN(c3c(C(=O)N4CCCCC4)cnc4ccc(F)cc34)CC2)cc1`, the “% Inhibition” value is -8%.
Under `CCCc1ccc(Cl)c(S(=O)(=O)Nc2nnc(C3CC3)o2)c1` stands 2%.
Turning to `CN1CN(C(=O)c2cc(C#N)cn2C)CC1=O`, the “% Inhibition” value is -10%.
`CCCOc1ccc(Nc2cc(C)nc3ccc(Cl)cc23)cc1`: the “% Inhibition” value is given as 42%.
For the molecule `CC(C)C(=O)Nc1ccc(-c2cc(-c3ccc(NC(=O)C(C)C)cc3)nc(-c3ccncc3)n2)cc1`, the “% Inhibition” value was determined as 56%.
As for `O=c1[nH]c2nc(N3CCN(c4ncccn4)CC3)ncc2c(=O)n1Cc1ccco1`, the “% Inhibition” value is on record as -21%.
For the molecule `Cc1cc(C)cc(-c2cc3nc(C)cc(N4CCC(C(=O)NCc5cccc(F)c5)CC4)n3n2)c1`, the “% Inhibition” value was found to be 79%.
In the case of `COC(=O)[C@@H](NC(=O)NC1CCCCC1)C(C)(C)C`, the “% Inhibition” value is given as -2%.
For the molecule `O=C(N[C@H]1CC12CC2)c1ccncc1F`, the “% Inhibition” value is given as -13%.
Then `CC(C)(C)C(=O)NCCNC(=O)c1ccccn1`, with 8%; and `Cc1c(N2CCC(C(=O)NCCN3CCOCC3)CC2)c(=O)n(CC(C)C)c(=O)n1-c1ccccc1`, with -6%; and `CC[C@H](C)NC(=O)c1cn(-c2cccc(C)n2)cn1`, with 1%.
On to `CCCn1ccnc1-c1cn(Cc2cc3ccccc3[nH]2)nn1`, for which the “% Inhibition” value was 39%.
`O=C(CN1CCCC1)Nc1ccc(N2CCn3c(nc4ccccc43)C2)cc1`: the “% Inhibition” value is given as 6%.
Under `CC(=O)Nc1cccc(C#CCN2CCN(c3ccc(F)cc3)CC2)c1` stands -5%.
As for `CCOc1ccc(-c2ccnc3c(C(=O)NCCc4c[nH]c5ccc(OC)cc45)cnn23)cc1`, the “% Inhibition” value is on record as -2%.
For the molecule `CC(=O)N(Cc1ccccc1)c1ccc2c(c1)nc(Cn1nc(C)cc1C)n2C`, the “% Inhibition” value is 2%.
Then `COc1ccc(CCNC(=O)c2cc3c(=O)[nH]c(C)cn3n2)cc1OC`, with 67%; and `COc1ccc(C)cc1NC(=O)N1CC[C@@]2(C1)Nc1cccnc1N=C2NC1CCCC1`, with -5%; and `Nc1ccnc(OCc2ccccc2)n1`, with -14%.
Then `COCCS(=O)(=O)Nc1ccc(Br)c(C)n1`, with -5%; and `Cc1ccc(N2C(=O)NC3c4ccccc4OC2(C)C3C(=O)Nc2ccc(Cl)cc2)cc1Cl` (stereo not drawn), with -13%.
`CC1(C(=O)N[C@H]2CCO[C@H](c3ccccn3)C2)CC1F` (stereo partly drawn): the “% Inhibition” value was 3%.
As for `CCCc1nc(N2CCCN(C(=O)C3CCCCC3)CC2)c2c(C)nn(-c3ccccc3)c2n1`, the “% Inhibition” value is 0%.
Regarding `O=S(=O)(Cc1ccccc1)N1CCC2(CCCCC2)C1`, the “% Inhibition” value is on record as 0%.
Then `CC(C)N(C)c1ccc(NC(=O)C2=NN(C)C(=O)CC2)cc1F`, with 1%; and `CCOc1ccccc1NC(=O)Cc1c(C)nc2nc(-c3cccnc3)nn2c1C`, with 0%; and `O=C(Nc1nc(CCc2c[nH]c3ccccc23)n[nH]1)c1cccnc1`, with 10%.
Turning to `Cc1nn(-c2ncccn2)c2c1[C@@H](c1ccccc1)CC(=O)N2`, the “% Inhibition” value is -16%.
Under `Cc1nn(-c2nc3ccccc3[nH]2)c2c1[C@@H](c1cccnc1)CC(=O)N2` stands 79%; under `Cc1cc2c(cc1C)O[C@H](C(=O)Nc1nnn[nH]1)C2`, -14%; under `Cc1ccc(-c2ccnc3c(C(=O)N4CCOCC4)cnn23)cc1C`, -3%.
Then `CC(C)c1cc(NS(=O)(=O)c2ccc3c(c2)OCCCO3)[nH]n1`, with -12%; and `O=c1[nH]c(=O)n(Cc2nc(-c3ccco3)no2)cc1Cl`, with 0%; and `Clc1ccc(Cn2cc(CNCCCn3ccnc3)c3ccccc32)c(Cl)c1`, with 98%.
Regarding `O=C(c1ccccc1)C1C(c2ccccc2)N1C(=O)c1ccc(Cl)cc1Cl` (stereo not drawn), the “% Inhibition” value is -3%.
Then `Cc1cccc(C2(c3cccc(C)c3)c3ccccc3/C(=N\c3ccccc3)N2c2ccccc2)c1`, with 4%; and `O=C(N[C@H]1CC[C@@H]2CCC[C@@H]21)c1c[nH]c(=O)c(Cl)c1`, with 43%; and `Clc1ccc(OCc2ccc(-c3nc4c5cn[nH]c5ncn4n3)cc2)c(Cl)c1`, with -6%.
Then `Fc1ccc(-c2cc3c(N4CCCCC4)nccn3n2)cc1`, with 0%.
Then `C[C@@H](NC(=O)Nc1ccc(Cl)c(Cl)c1)C(=O)O`, with 5%.
For `O=C(c1ccoc1-c1ccccc1O)N1CCOCC1`, the “% Inhibition” value came out at 1%.
As to `NC(=O)CN1CCCN(C(=O)c2cnc3ccccc3n2)CC1`, the “% Inhibition” value amounted to 4%.
In the case of `CCOc1cccc(Cn2c(=O)c3sccc3n(CC(=O)Nc3ccccc3)c2=O)c1`, the “% Inhibition” value is 9%.
Consider `Cc1noc2ncc(C(=O)N3C[C@H](C)OC(C)(C)C3)cc12`, for which the “% Inhibition” value was found to be 9%.
Under `Cc1ccc(N2CCCN(Cc3ccc(C(C)C)cc3)C2=O)c(NC(=O)c2ccco2)c1` stands 8%; under `COc1ccc(CCc2nc(NC(=O)c3[nH]nc4c3CCC4)n[nH]2)cc1`, -1%.
Consider `Nc1c(-c2ccccc2)nsc1C(=O)NCC1CC1`, for which the “% Inhibition” value was 0%.
As to `CCCn1nccc1C(=O)NCCCn1ncc2c(C)cccc21`, the “% Inhibition” value is given as -2%.
As to `c1ccc(-n2ncnc2[C@@H]2COCCN2)cc1`, the “% Inhibition” value came to 0%.
In the case of `O=C1C2C3CCCCN3C3(C(=O)N(Cc4ccc(F)cc4)c4ccccc43)C2C(=O)N1c1ccccc1` (stereo not drawn), the “% Inhibition” value is reported as -1%.
For `C[C@H]1CCc2c(cnc3c(C(=O)NCc4ccccc4)cnn23)C1`, the “% Inhibition” value is -6%.
With `CCn1ncc(NC(=O)c2cc(-c3ccccc3)on2)c1C`, the “% Inhibition” value was -15%.
On to `O=C(NC[C@H]1CCCO1)N1CCN(c2nccs2)C(=O)C1`, for which the “% Inhibition” value was determined as 1%.
With `O=C(Cn1nnc2ccccc21)N(Cc1ccccc1)C1(C(=O)Nc2ccc3c(c2)OCO3)CCCCC1`, the “% Inhibition” value was found to be 23%.
For `Cc1ccc(C(=O)N2CC(C)CC(C)C2)cc1NCc1ncc[nH]1` (stereo not drawn), the “% Inhibition” value came out at 8%.
Consider `Cc1cccc2ncnc(N(C)[C@@H](C)Cc3ccc(O)cc3)c12`, for which the “% Inhibition” value worked out at 79%.
